From PubChem BioAssay AID1346428 (National Center for Advancing Translational Sciences (NCATS), 2018) come the findings set out here.

“And” between values parts separate entries of the source, which are not always exact repeats. Equal entries are not always repeated. Screen size: about 48,000 compounds; about 1,200 (2.5%) were called active. Not shown: some 2% with an inconclusive outcome.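 The calls were made as follows: active = activation of at least 60% and not above a set upper limit (about 1 call in 100 departs from these limits); inconclusive = activation of 40% to 60%, or above that upper limit; inactive = activation under 40%.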 The list shows a part of the results.

This assay has as its target Probable G-protein coupled receptor 32 (Homo sapiens) (UniProt O75388). In words: qHTS for Agonists of Human Resolvin D1 Receptor DRV1. Also: 0% is about no effect. The following applies: CHO-K1 GPR32 beta-arrestin PathHunter luminescence, 90 min; at 76.9 µM; stronger effect = higher value; zero percent set by DMSO-only wells. The gist of the method: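 CHO-K1 cells stably expressing ProLink-tagged GPR32 and Enzyme Activator-tagged beta-arrestin were seeded at 2,500 cells/well overnight, exposed to compounds for 90 min at 37 °C, then read by beta-Gal complementation chemiluminescence after 1 h detection reagent.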
UniProt O75388, sequence (O75388 whole entry, looked up): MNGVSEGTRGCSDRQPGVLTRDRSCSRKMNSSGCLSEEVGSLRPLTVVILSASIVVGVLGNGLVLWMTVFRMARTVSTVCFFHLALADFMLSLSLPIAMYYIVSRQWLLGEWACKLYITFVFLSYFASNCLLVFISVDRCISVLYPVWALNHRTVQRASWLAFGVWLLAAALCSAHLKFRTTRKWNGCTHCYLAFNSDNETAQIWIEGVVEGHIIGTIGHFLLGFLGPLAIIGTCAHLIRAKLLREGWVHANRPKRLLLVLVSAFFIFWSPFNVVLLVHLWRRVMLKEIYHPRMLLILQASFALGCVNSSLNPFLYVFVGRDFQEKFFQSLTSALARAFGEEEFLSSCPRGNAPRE
Turning to `Cc1ccc(NC(=O)CCCN2C(=O)COc3ccc(C)cc32)c(Cl)c1`, the activation was inactive: -22.8%.

Take `CCOC(=O)c1cnn2c(C(F)(F)F)cc(-c3ccc(Br)cc3)nc12`: the activation is inactive: -7.07%.

Regarding `COc1ccc(-c2cnc(C)o2)cc1S(=O)(=O)Nc1cccc(C(F)(F)F)c1`, the activation is inactive: -5.47%.

For `O=C(Nc1cccc(C(F)(F)F)c1)C1CCN(S(=O)(=O)c2cccc3nsnc23)CC1`, the activation is inactive: 14%.

With `Cc1ccccc1-c1noc(CSc2nc(-c3ccc(F)cc3)cc(=O)[nH]2)n1`, the activation was inactive: -7.1%.

Turning to `COc1ccc(-n2nnnc2SCC(=O)NCCc2ccccc2)cc1`, the activation was inactive: -12.4%.

Consider `COC(=O)Cc1c(C)c2ccc3c(c2oc1=O)CN(Cc1ccc(C)cc1)CO3`, for which the activation is inactive: -11.2%.

Turning to `O=C(Nc1ccc(OCc2cc(=O)n3c4c(sc3n2)CCCC4)cc1)c1ccc(F)cc1`, the activation is inactive: -3.32%.

On to `Cc1ccc(NC(=O)Cn2nc(C(F)(F)F)c3c2CCC3)cc1C`, for which the activation was inactive: -8.28%.

As for `CC(C)COc1ccc(C(=O)Nc2onc3c2CCCC3)cc1`, the activation was active: 114%.

`CCOc1ccc(CCNC(=O)CCn2c(=O)c3cccn3c3ccc(F)cc32)cc1`: the activation was inactive: -15.2%.

As to `NC(=O)C1CCN(c2ncnc3c2cnn3-c2cccc(Cl)c2)CC1`, the activation is inactive: 10.7%.

As for `COc1ccc(-c2noc(-c3ccc(NCc4ccco4)c([N+](=O)[O-])c3)n2)cc1OC`, the activation is inactive: -7.22%.

For the compound `Cc1cccc(CNC(=O)CCCN2C(=O)c3cccnc3Oc3ccccc32)c1`, the activation is inactive: -12.8%.

As for `CCOc1ccc(C(=O)NCCc2sc(-c3cccc(F)c3)nc2C)cc1OCC`, the activation was inactive: -0.823%.

As for `CCc1ccc(N2CC(c3nc4ccccc4n3Cc3ccccc3C)CC2=O)cc1` (stereo not given), the activation is inactive: -26.2%.

Turning to `Cc1cccc(Cn2c(CNC(=O)c3ccccc3)nc3ccccc32)c1`, the activation is inactive: 5.7%.

`CC(C)OCCCNC(=O)c1c2c(nc3ccccc13)C(=O)N(C1CCCCC1)C2`: the activation is inactive: -8.54%.

Turning to `Cc1ccn2c(Nc3ccc(C(C)C)cc3)c(-c3ccsc3)nc2c1`, the activation is inactive: -21.7%.

`CC(=O)c1ccc(NC(=O)CSc2nnc(NC(=O)NC3CCCCC3)s2)cc1`: the activation was inactive: -0.609%.

On to `Cc1cc(C)cc(Nc2ncnc3sc4c(c23)CCCC4)c1`, for which the activation is inactive: -6.1%.

Consider `Cc1cc(C)c(NC(=O)Nc2sc3nc4n(c(=O)c3c2C)CCC(C)CC4)c(C)c1` (stereo not given), for which the activation was inactive: -10.5%.

Consider `CCOC(=O)c1cc(-c2ccccc2)n(CC(=O)Nc2cc(Cl)c(OC)cc2OC)c1C`, for which the activation was inactive: -10.8%.

With `Cc1ccc(Nc2c(-c3ccc(N4CCOCC4)cc3)nc3ncccn23)c(C)c1`, the activation is inactive: -35.6%.

As to `COCCNC(=O)CCSc1nc(-c2ccc(OC)cc2)cc(C(F)(F)F)n1`, the activation was inactive: -2.18%.

With `Cc1nn(C(C)C(=O)Nc2cccc(F)c2)c(=O)c2c1sc1ccccc12` (stereo not given), the activation was inactive: -24%.

Take `CCCCCOc1ccccc1Cn1c(=O)oc2ccc(C)cc21`: the activation is inactive: -10.8%.

`O=C(NC1CCCC1)c1ccc(CSc2nc3cccnc3n2Cc2ccccc2F)cc1`: the activation is inactive: 4.42%.

On to `Cc1ccccc1C(OCCN(C)C)c1ccccc1` (stereo not given), for which the activation is inactive: 30.1% and inactive: -6.44%.

Consider `CC1CCCN(Cc2c(O)ccc3c(=O)c(-c4ccccc4Cl)c(C(F)(F)F)oc23)C1` (stereo not given), for which the activation is inactive: -24.7%.

`O=C(Cn1c(-c2cccs2)cc2ccccc21)NCCCN1CCN(c2ccc(F)cc2)CC1`: the activation was inactive: -20.2%.

Take `Cc1cc(C)c(NS(=O)(=O)c2ccc3c(c2)NC(=O)CCS3)c(C)c1`: the activation is active: 83.2%.

Turning to `Cc1c(I)c(=O)n(-c2ccccc2)n1C`, the activation was inactive: 3.7%.

In the case of `O=C(COc1ccc(Cl)cc1)N(Cc1ccco1)c1ccccn1`, the activation is inactive: -4.71%.

Turning to `CCOc1ccc(OCC)c(NS(=O)(=O)c2ccc3c(c2)CCCN3C(C)=O)c1`, the activation is inactive: -13.5%.

For `CCc1nnc(NC(=O)c2nc(SCc3ccc(F)cc3)ncc2Cl)s1`, the activation is inactive: 48.7%.

On to `O=C(O)/C=C\C(=O)O`, for which the activation was inactive: 10.4%.

In the case of `O=C(OCC1CCCO1)c1ccc2c(c1)N(Cc1c(F)cccc1Cl)C(=O)c1ccccc1S2(=O)=O` (stereo not given), the activation was inactive: -2.94%.

On to `Nc1ncnc2c1ncn2[C@@H]1O[C@H](COP(=O)(O)CP(=O)(O)OP(=O)(O)O)[C@@H](O)[C@H]1O`, for which the activation is inactive: 1.13%.

As to `CCCCn1c(C2CC(=O)N(c3ccc(OCC)cc3)C2)nc2ccccc21` (stereo not given), the activation is inactive: -8.5%.

As for `COCC(C)NC(=O)C1=CC(c2ccc3c(c2)OCO3)=NS(=O)(=O)N1C` (stereo not given), the activation is inactive: -5.4%.

For `Cc1cc(C)c(NC(=O)c2ccc3nc(C(C)C)oc3c2)c(C)c1`, the activation was inactive: -8.47%.

Regarding `CCOCCn1c(=NC(=O)c2ccc3c(c2)OCCO3)sc2cc(OCC)ccc21`, the activation was inactive: -7.51%.

In the case of `NCCNS(=O)(=O)c1cccc2c(Cl)cccc12`, the activation is inactive: -4.64%.

`CCN(CC)S(=O)(=O)c1ccc2c(c1)c(=O)c(C(=O)N1CCN(c3cc(C)ccc3C)CC1)cn2C`: the activation was inactive: 3.67%.

As for `O=C(Cn1cc(SCc2ccc(F)cc2)c2ccccc21)N1CCCC1`, the activation was inactive: -21.8%.

In the case of `Cc1cccc(S(=O)(=O)c2cn(Cc3ccc(F)cc3)c3cc(N4CCOCC4)c(F)cc3c2=O)c1`, the activation was inactive: -6.39%.

As for `Cc1ccc(Cl)cc1N1CCN(C(=O)c2cnc3c(-c4ccc(F)cc4)c(C)nn3c2C)CC1`, the activation is inactive: -9.36%.

For the compound `O=C(Nc1ccccc1C(F)(F)F)C1CCN(c2nnc(-n3cccc3)s2)CC1`, the activation was inactive: -6.9%.

For `COc1ccc(S(=O)(=O)N2CCC(c3nnnn3-c3ccccc3)CC2)cc1OC`, the activation was inactive: 1.32%.

For the compound `CCC(C(=O)NC1CCCCC1)n1nc(C)c2sc3ccccc3c2c1=O` (stereo not given), the activation is inactive: -3.77%.

As to `CSc1ccc(-c2nc3cc(C)ccn3c2Nc2ccc(C)cc2)cc1`, the activation is inactive: 0.977%.

`Cc1cccc(-c2nc(S(=O)(=O)c3ccccc3)c(N3CCN(c4ccccc4)CC3)o2)c1`: the activation is inactive: -12.7%.

As to `O=C(CSc1nc2c(c(=O)[nH]1)CCC2)Nc1cc(C(F)(F)F)ccc1Cl`, the activation is active: 82.6%.

On to `CCc1ccc(NC(=O)C(=O)NCCc2sc(-c3ccc(C)cc3)nc2C)cc1`, for which the activation was inactive: -5.8%.

Consider `COc1ccc(NCc2cccn2-c2nnc(N3CCC(C)CC3)s2)c(OC)c1`, for which the activation was inactive: -19.8%.

Take `CC(C)C[C@H]1C(=O)N2CCC[C@H]2[C@]2(O)O[C@](NC(=O)[C@@H]3C=C4c5cccc6[nH]c(Br)c(c56)C[C@H]4N(C)C3)(C(C)C)C(=O)N12`: the activation is inactive: -10.3%.

For the compound `Cn1ccc2c(OCC(=O)NCc3ccc(F)cc3)cccc2c1=O`, the activation is active: 68.1%.

As for `CCOC(=O)c1cc(S(=O)(=O)Nc2cc(C)c(Cl)cc2OC)[nH]n1`, the activation is inactive: -4.91%.

As to `Cc1ccc(C(=O)c2cn(Cc3ccccc3)c3cc4c(cc3c2=O)OCCO4)cc1`, the activation was inactive: 16.7%.

For `CCc1cccc(NC(=O)CSc2nccn2C)c1`, the activation is inactive: 7.11%.

`COc1c(Cl)cc(Cl)cc1C(=O)Nc1cccc2cccnc12`: the activation is inactive: 11.4%.

For `CCOC(=O)c1ccc(N2C(=O)c3n[nH]c(C)c3C2c2ccccc2OC)cc1` (stereo not given), the activation is inactive: 10.6%.

Take `N#Cc1ccc(C(=O)NCc2ccc3c(c2)CCN3C(=O)c2ccc(F)cc2)cc1`: the activation is inactive: -21.2%.

Regarding `CCc1ccc2oc(C(=O)Nc3c(C)n(C)n(-c4ccccc4)c3=O)cc(=O)c2c1`, the activation is inactive: -0.806%.

As to `Cc1ccccc1Cn1c2ccccc2c2cnn(CC(=O)NC(C)CCc3ccccc3)c(=O)c21` (stereo not given), the activation was inactive: 5.13%.

Consider `COC(=O)c1ccc(NC(=O)CN(CCc2ccccc2)S(=O)(=O)c2ccc(OC)cc2)cc1`, for which the activation is inactive: -26.8%.

For `Cc1cccc(CCNc2ncnc3onc(-c4ccc(Cl)cc4)c23)c1`, the activation was inactive: 11.2%.

`Cc1cccc(Cn2nc(C)n3c(cc4cc(C)ccc43)c2=O)c1`: the activation was inactive: 4.24%.

On to `Cc1ccccc1OCC(=O)Nc1sc2c(c1C(=O)OC(C)C)CCCC2`, for which the activation was inactive: -8.18%.

Turning to `CCOc1ccc(C(=O)NCCc2sc(-c3ccc(OC)c(OC)c3)nc2C)cc1`, the activation is inactive: -6.95%.

Take `Cc1ccc(C)c(N2CCN(c3ccc4cc(S(=O)(=O)N5CCC(C)CC5)ccc4n3)CC2)c1`: the activation was inactive: -13.3%.

In the case of `Cc1ccc(C)c(N2CCN(C(=O)c3cc(C)nc4c3c(C)nn4-c3cccc(F)c3)CC2)c1`, the activation was inactive: -20.7%.

As to `CCOc1ccc(-n2c(SCC(=O)N3CCC(C)CC3)nc3c([nH]c4ccccc43)c2=O)cc1`, the activation was inactive: -1.21%.

`CCn1c(C(=O)NCc2ccc(OC(C)C)cc2)cc2oc3ccccc3c21`: the activation was inactive: -26.5%.

Turning to `Cc1oc2ccc(O)c(CN3CCN(C)CC3)c2c1C(=O)Nc1cccc(Cl)c1C`, the activation was inactive: -1.76%.

As to `CCCCCCCCCCCCOCCO`, the activation is inactive: 13.5%.

For `Cc1ccc2c(c1)c(=O)c1ccccc1n2CCCC(=O)Nc1cc(Cl)ccc1C`, the activation is inactive: -0.242%.

In the case of `Cc1oc(-c2cccc(Cl)c2)nc1CS(=O)(=O)CC(=O)NCc1ccccc1Cl`, the activation was inactive: 19.1%.

For `CCCOc1ccc(C(=O)Nc2cc3c(cc2N2CCOCC2)n(C)c(=O)n3C)cc1`, the activation was inactive: -22.6%.

On to `Cc1cccc(N2C(=O)C(CC(=O)Nc3ccc(Cl)cc3)N(Cc3ccco3)C2=O)c1` (stereo not given), for which the activation is inactive: -26.6%.

Regarding `Cc1cccc(-n2c(=O)c3c(c4cc(C)ccc4n3C)n(CC(=O)NCC3CCCO3)c2=O)c1` (stereo not given), the activation was inactive: -8.6%.

As to `COc1ccc2c(CNCc3cccs3)c(C(=O)O)n(Cc3ccc(C)cc3)c2c1`, the activation was inactive: 12.3%.

In the case of `Cc1nn(CC(=O)O)c(=O)c2cc3cc(F)ccc3n12`, the activation was inactive: 2.24%.

Take `COc1ccccc1NC(=O)c1cc(S(=O)(=O)N2CCN(c3ccccc3Cl)CC2)ccc1F`: the activation is inactive: 1.89%.
